Laboratory results from US11999806B2, “Broad-spectrum polypeptide against enterovirus and application thereof” (WUHAN INSTITUTE OF VIROLOGY, CHINESE ACADEMY OF SCIENCES, priority 2018, dated 2024).
Values joined by “and” are separate entries in the source; they are usually repeats but may differ in a detail not shown here. Equal entries are not always repeated. Where two headings read alike, the source gives them in different places. Not every detail of the peptide structures is certain; ends, links or a residue may be inferred. No end group written: not given here.

Tests used:
EV71 [1] = assay: Anti-EV71 efficiency in 293T cells, viral RNA by qRT-PCR; format: cell-based, enterovirus 71; details: FIG. 5, 293T cells, compared with P2
Source text: […]

EV71 [2] = format: cell-based, enterovirus 71; details: RD cells, EV71 0.1 MOI, 24 h; read-out: IC50 against EV71 by CCK8 method
Method: • (1) 293T cells were plated in a 24-well cell plate. • (2) After the cells reached 70%-80% confluence, the MEM medium containing 10% serum was replaced with a MEM medium containing 2% serum (0.5 ml/well), and 5 μl of 10^6 PFU/mL EV71 virus per well was added. • (3) After 1 hour, polypeptides P2, 3A-TAT-EP, 3A-EP-DRI and 3A-EP-PEG-PA were added at a final concentration of 0.01 μM, 0.1 μM, 1 μM, and 10 μM, respectively. • (4) Samples were collected 24 hours after virus infection, and RNA was extracted with a total RNA extraction kit. • (5) The supernatant in each well was discarded, then 350 μl of TRK Lysis Buffer was added to the well and the plate was shaken on the shaker for 5 minutes. • (6) 350 μl of 70% ethanol (DEPC-treated) was added to the well and the plate was shaken on the shaker for 5 minutes. • (7) The mixture in the well was transferred to a RNA extraction column and centrifuged at 12000 g for 1 min. • (8) The solution collected in the recovery tube was added back to the column and centrifuged at 12,000 g for 1 min. • (9) RNA washing buffer 1 was added to the column and centrifuged at 12,000 g for 30 s. • (10) RNA washing buffer 2 was added to the column and centrifuged at 12,000 g for 1 min. • (11) Step (10) was repeated once. • (12) The empty column was centrifuged at 12,000 g for 2 min to completely remove residual RNA washing buffer. • (13) 50 μl DEPC-treated water was added to the column and centrifuge at 12000 g for 2 min. • (14) 2 μl RNA sample was used according to one step qRT-PCR kit for fluorescence quantification experiment. 3. […] Then CCK8 kit was used to determine the inhibitory effect of the polypeptide on virus. • (5) The inhibition rate of different concentrations of polypeptides on viral infection was calculated using the following formula: OD means the value of OD450-OD630, inhibition rate=(OD well with treatment−OD well with virus only)×100%/(OD well without treatment−OD well with virus only) […]

RD cells = assay: Membrane penetration efficiency of fluorescence-labelled polypeptide (immunofluorescence); format: cell-based; details: fluorescence-labelled polypeptide 1 μM, RD cells with or without EV71 (MOI=0.1), fixed 12 h after addition
EV71 [3] = assay: Anti-EV71 efficiency in RD cells, viral RNA by qRT-PCR; format: cell-based, enterovirus 71; details: viral genomic RNA by qRT-PCR
Method: • (1) RD cells were plated in five 100 mm dishes. • (2) After the cells reached 70%-80% confluence, the MEM medium containing 10% serum was replaced with a MEM medium containing 2% serum. […] When the changes were obvious, samples were collected as follows. • (4) The supernatant in the 100 mm dish was transferred into a 15 ml centrifuge tube, and centrifuged at 500 g for 5 min. • (5) The supernatant was transferred into a new 15 ml centrifuge tube, and filtered through 0.22 μm filter membrane with a 50 ml syringe. • (6) RNA was extracted from 100 μl of the supernatant obtained in step (5) and subjected to one step qRT-PCR to measure the virus titer, and the previously extracted virus RNA with known titer was handled together as a control. 3. […]
RD cells were used to test the antiviral effect of polypeptide P2. […] The level of viral genomic RNA was detected by qRT-PCR. […]

CVA16 = format: cell-based, Coxsackievirus A16; details: CCK-8; for Virus inhibition rate (%): CVA16, RD cells, 24 h

Row | Compound | antiviral effect of P2 variants as EV71 inhibitor, in words (EV71 [1]) | IC50 (EV71 [2]) [µM] | ability to penetrate cell membrane (RD cells) | anti-EV71 activity, in words (EV71 [3]) | Virus inhibition rate (%) (CVA16; 0.625 μM) | Virus inhibition rate (%) (CVA16; 1.25 μM) | Virus inhibition rate (%) (CVA16; 2.5 μM) | Virus inhibition rate (%) (CVA16; 5 μM) | effect on CVA16, in words (CVA16; RD cells)
1 | CC[C@H](C)[C@H](NC(=O)[C@H](Cc1c[nH]c2ccccc12)NC(=O)CNC(=O)[C@H](CCC(N)=O)NC(=O)[C@H](CCC(=O)O)NC(=O)[C@H](CCCNC(=N)N)NC(=O)[C@H](CS)NC(=O)[C@H](Cc1ccc(O)cc1)NC(=O)[C@H](CCC(N)=O)NC(=O)[C@H](CCCNC(=N)N)NC(=O)[C@@H](NC(=O)[C@H](CCC(=O)O)NC(=O)[C@H](CCC(=O)O)NC(=O)CNC(=O)[C@H](CO)NC(=O)CNC(=O)[C@H](CCCNC(=N)N)NC(=O)[C@H](CCCNC(=N)N)NC(=O)[C@H](CCCNC(=N)N)NC(=O)[C@H](CCC(N)=O)NC(=O)[C@H](CCCNC(=N)N)NC(=O)[C@H](CCCNC(=N)N)NC(=O)[C@H](CCCCN)NC(=O)[C@H](CCCCN)NC(=O)[C@H](CCCNC(=N)N)NC(=O)CNC(=O)[C@@H](N)Cc1ccc(O)cc1)C(C)C)C(=O)N[C@H](C(=O)N1CCC[C@H]1C(=O)O)[C@@H](C)CC [3A-TAT-EP] | improved antiviral effect | 4.36 |  |  |  |  |  |  | 
2 | RRRRRRRREEVRQYCRDQ [P2] |  |  | good ability to penetrate cell membrane | obvious anti-EV71 activity | 24.39% and 24.57% and 15.22% | 42.54% and 30.99% and 38.33% | 71.15% and 60.7% and 55.75% | 101% and 86.55% and 93.15% | can significantly inhibit CVA16
